# Measurements as given in the supplement of paper PMC8728848.
# The other results are listed elsewhere or left out.
# B1: XL-35 (Xenopus laevis) (protein)
# chain: MLVHILLLLVTGGLSQSCDPVVIVASKNMVKQLDCDKFRNCKEIKDSNEEAQDGIYTLTSPDGISYQTFCDMTTNGGGWTLVASVHENNMAGKCTIGDRWSSQQGNRADYPEGDGNWANYNTFGSAGGATSDDYKNPGYYDIEAYNLGVWHVPNKTPLSVWRNSSLQRYRTTDGILFKHGGNLFSLYRIYPVKYGIGSCSKDSGPTVPVVYDLGSANLTASFYSPGFRSQFTPGYIQFRPINTEKAALALCPGMKMESCNVEHVCIGGGGYFPEADPRQCGDFAAYDFNGYGTKKFNSAGIEITEAAVLLFYL
# How the values were obtained:
# Experiment in all cases: glycan array binding signal (z-score within array); higher = stronger binding
# Settings in all cases: glycan notation: IUPAC condensed, linker removed
# [1] = molecular target: Gal(b1-4)GlcNAc(b1-6)Gal(b1-4)GlcNAc
# How it was run: (§1)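 Columns mapping to the same glycan were averaged after glycan names were converted to IUPAC-condensed notation. The data come from 3228 arrays in the Consortium for Functional Glycomics database, limited to those with an available protein sequence. Binding is reported as a within-array Z-score averaged across arrays of one protein sequence and across linkers.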
# [2] = molecular target: Gal(b1-4)GlcNAc(b1-6)GalNAc
# How it was run: as §1
# [3] = molecular target: Gal(b1-4)GlcNAc(b1-6)[Gal(b1-3)]GalNAc
# How it was run: as §1
# [4] = molecular target: Gal(b1-4)GlcNAc(b1-6)[Gal(b1-3)]GlcNAc
# How it was run: as §1
# [5] = molecular target: Gal(b1-4)GlcNAc(b1-6)[Gal(b1-4)GlcNAc(b1-3)]GalNAc
# How it was run: as §1
# Gal(b1-4)GlcNAc6P = molecular target: Gal(b1-4)GlcNAc6P
# How it was run: as §1
# Gal(b1-6)Gal = molecular target: Gal(b1-6)Gal
# How it was run: as §1
# Gal3S(b1-3)GalNAc = molecular target: Gal3S(b1-3)GalNAc
# How it was run: as §1
# Gal3S(b1-3)GlcNAc = molecular target: Gal3S(b1-3)GlcNAc
# How it was run: as §1
# [6] = molecular target: Gal3S(b1-3)[Fuc(a1-4)]GlcNAc
# How it was run: as §1
# Gal3S(b1-4)Glc = molecular target: Gal3S(b1-4)Glc
# How it was run: as §1
# Gal3S(b1-4)Glc6S = molecular target: Gal3S(b1-4)Glc6S
# How it was run: as §1
# Gal3S(b1-4)GlcNAc = molecular target: Gal3S(b1-4)GlcNAc
# How it was run: as §1
# Gal3S(b1-4)GlcNAc6S = molecular target: Gal3S(b1-4)GlcNAc6S
# How it was run: as §1
# [7] = molecular target: Gal3S(b1-4)[Fuc(a1-3)]Glc6S
# How it was run: as §1
# [8] = molecular target: Gal3S(b1-4)[Fuc(a1-3)]GlcNAc
# How it was run: as §1
# [9] = molecular target: Gal3S(b1-4)[Fuc(a1-3)]GlcNAc6S
# How it was run: as §1
# Gal3S4S(b1-4)GlcNAc = molecular target: Gal3S4S(b1-4)GlcNAc
# How it was run: as §1
# Gal3S6S(b1-4)GlcNAc = molecular target: Gal3S6S(b1-4)GlcNAc
# How it was run: as §1
# Gal3S6S(b1-4)GlcNAc6S = molecular target: Gal3S6S(b1-4)GlcNAc6S
# How it was run: as §1
# Gal4S(b1-4)GlcNAc = molecular target: Gal4S(b1-4)GlcNAc
# How it was run: as §1
# Gal4S6S(b1-4)GlcNAc = molecular target: Gal4S6S(b1-4)GlcNAc
# How it was run: as §1
# Gal6P(b1-4)GlcNAc = molecular target: Gal6P(b1-4)GlcNAc
# How it was run: as §1
# Gal6S(b1-3)GlcNAc = molecular target: Gal6S(b1-3)GlcNAc
# How it was run: as §1
# Gal6S(b1-3)GlcNAc6S = molecular target: Gal6S(b1-3)GlcNAc6S
# How it was run: as §1
# Gal6S(b1-4)Glc = molecular target: Gal6S(b1-4)Glc
# How it was run: as §1
# Gal6S(b1-4)Glc6S = molecular target: Gal6S(b1-4)Glc6S
# How it was run: as §1
# Gal6S(b1-4)GlcNAc = molecular target: Gal6S(b1-4)GlcNAc
# How it was run: as §1
# Gal6S(b1-4)GlcNAc6S = molecular target: Gal6S(b1-4)GlcNAc6S
# How it was run: as §1
# GalNAc(a1-3)Gal = molecular target: GalNAc(a1-3)Gal
# How it was run: as §1
# GalNAc(a1-3)GalNAc = molecular target: GalNAc(a1-3)GalNAc
# How it was run: as §1
# [10] = molecular target: GalNAc(a1-3)GalNAc(b1-3)Gal(a1-4)Gal(b1-4)Glc
# How it was run: as §1
# [11] = molecular target: GalNAc(a1-3)GalNAc(b1-3)Gal(a1-4)Gal(b1-4)GlcNAc
# How it was run: as §1
# GalNAc(b1-3)Gal = molecular target: GalNAc(b1-3)Gal
# How it was run: as §1
# [12] = molecular target: GalNAc(b1-3)Gal(a1-4)Gal(b1-4)GlcNAc
# How it was run: as §1
# [13] = molecular target: GalNAc(b1-3)Gal(a1-4)Gal(b1-4)GlcNAc(b1-3)Gal(b1-4)Glc
# How it was run: as §1
# [14] = molecular target: GalNAc(b1-3)Gal(a1-6)Gal(b1-4)Glc
# How it was run: as §1
binder,measurement,setting,value
B1,glycan array binding signal (z-score),[1],-0.354
same,glycan array binding signal (z-score),[2],-0.097
same,glycan array binding signal (z-score),[3],-0.038
same,glycan array binding signal (z-score),[4],-0.106
same,glycan array binding signal (z-score),[5],-0.332
same,glycan array binding signal (z-score),Gal(b1-4)GlcNAc6P,-0.273
same,glycan array binding signal (z-score),Gal(b1-6)Gal,-0.238
same,glycan array binding signal (z-score),Gal3S(b1-3)GalNAc,0.278
same,glycan array binding signal (z-score),Gal3S(b1-3)GlcNAc,0.168
same,glycan array binding signal (z-score),[6],-0.223
same,glycan array binding signal (z-score),Gal3S(b1-4)Glc,-0.135
same,glycan array binding signal (z-score),Gal3S(b1-4)Glc6S,-0.076
same,glycan array binding signal (z-score),Gal3S(b1-4)GlcNAc,0.028
same,glycan array binding signal (z-score),Gal3S(b1-4)GlcNAc6S,0.036
same,glycan array binding signal (z-score),[7],0.818
same,glycan array binding signal (z-score),[8],0.601
same,glycan array binding signal (z-score),[9],0.007
same,glycan array binding signal (z-score),Gal3S4S(b1-4)GlcNAc,-0.29
same,glycan array binding signal (z-score),Gal3S6S(b1-4)GlcNAc,0.114
same,glycan array binding signal (z-score),Gal3S6S(b1-4)GlcNAc6S,0.043
same,glycan array binding signal (z-score),Gal4S(b1-4)GlcNAc,-0.18
same,glycan array binding signal (z-score),Gal4S6S(b1-4)GlcNAc,-0.282
same,glycan array binding signal (z-score),Gal6P(b1-4)GlcNAc,-0.519
same,glycan array binding signal (z-score),Gal6S(b1-3)GlcNAc,0.247
same,glycan array binding signal (z-score),Gal6S(b1-3)GlcNAc6S,-0.125
same,glycan array binding signal (z-score),Gal6S(b1-4)Glc,0.179
same,glycan array binding signal (z-score),Gal6S(b1-4)Glc6S,-0.025
same,glycan array binding signal (z-score),Gal6S(b1-4)GlcNAc,0.043
same,glycan array binding signal (z-score),Gal6S(b1-4)GlcNAc6S,0.18
same,glycan array binding signal (z-score),GalNAc(a1-3)Gal,0.045
same,glycan array binding signal (z-score),GalNAc(a1-3)GalNAc,-0.094
same,glycan array binding signal (z-score),[10],-0.291
same,glycan array binding signal (z-score),[11],-0.369
same,glycan array binding signal (z-score),GalNAc(b1-3)Gal,-0.169
same,glycan array binding signal (z-score),[12],0.014
same,glycan array binding signal (z-score),[13],-0.027
same,glycan array binding signal (z-score),[14],-0.303
